Test results reported in PubChem BioAssay AID1508642 (National Center for Advancing Translational Sciences (NCATS), 2021).
The whole screen tested about 43,000 compounds, of which about 200 (0.47%) were called active. Not shown: some 12% with an inconclusive outcome. Calls follow the shape of the dose curve; as a rule, active = well fitted cell-killing curve with a large enough effect; inconclusive = small, poorly fitted or top-dose-only effect, or effect the other way; inactive = flat fitted curve, though single readings scatter. This is one part of the list.

Assay: Cell viability qHTS assay in S16 Pmp22-F2sN cells; also: nearly all actives have a fitted effect of over 65% in size
Conditions: S16 Pmp22-F2sN Schwann cells viability, CellTiter-Glo, 24 h; series mostly up to 57.5 µM; activity change, negative = cytotoxicity: at the top concentration
How it was run: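 Viability was measured by CellTiter-Glo luminescence (15 min, room temperature). This followed 24 h at 37 °C of compound exposure (23 nL pin transfer) in S16 Pmp22-F2sN Schwann cells, 500-1,000 per well.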
% is scaled to controls: 0 for no effect and ±100 for the full control effect; potency is read from the fitted curve at half-maximal effect.

Structure (SMILES) | activity change, negative = cytotoxicity | Potency
CCOc1ccc(Cn2c(CNS(=O)(=O)c3ccc(CC)cc3)nc3cccnc32)cc1 | inactive: 0.0357% | –
CCCn1cc(S(=O)(=O)c2ccc(CC)cc2)c(=O)c2cc(F)c(N3CCN(C)CC3)cc21 | inactive: -2.84% | –
COc1ccc(OC)c(CCNC(=O)c2nn(C)c3c2CSc2ccccc2-3)c1 | inactive: -9.69% | –
COc1ccc(N2Cc3cccc(C(=O)Nc4cccc(F)c4)c3C2=O)cc1 | inactive: 5.16% | –
Cn1c(C(=O)N2CCC(C(=O)N3CCN(c4ccccc4)CC3)CC2)cc2sccc21 | inactive: -2.16% | –
Cc1nnc(N2CCN(c3cccc(C(F)(F)F)c3)CC2)c2c1nnn2Cc1ccccc1 | inactive: 6.17% | –
Cc1noc2ncnc(NCc3ccc(Cl)cc3)c12 | inactive: -15.4% | –
Cc1ccc(-c2cc(NC(=O)C(C)Oc3ccccc3F)on2)cc1 (stereo unspecified) | inactive: -1.08% | –
CN(C)c1ccc(C(=O)Nc2ccc(-c3nc4ccccc4o3)cc2)cc1 | inactive: -15.1% | –
Cc1cc(NC(=O)C2CCCN(S(=O)(=O)c3cn(C)cn3)C2)ccc1Br (stereo unspecified) | inactive: 7.38% | –
COc1ccc(N2CCN(c3oc(/C=C/c4ccccc4OC)nc3C#N)CC2)cc1 | inactive: 15.2% | –
COc1ccc(NC(=O)C(=O)NCc2ccco2)c(OC)c1 | inactive: 1.5% | –
CCOc1ccc(CC(=O)Nc2c(C(=O)c3ccc(F)cc3)oc3ccc(Cl)cc23)cc1OCC | inactive: -0.592% | –
Cc1cc(C)cc(NC(=O)N2CCC(N3CCN(Cc4ccccc4)C(=O)C3=O)CC2)c1 | inactive: 1.68% | –
O=C(Nc1ccc(C(=O)OCc2cc(=O)n3ccsc3n2)cc1)c1cccc(F)c1 | inactive: 4.03% | –
COc1ccc(OC)c(CNC(=O)C2CCN(S(=O)(=O)c3ccc4[nH]c(=O)oc4c3)CC2)c1 | inactive: -3.81% | –
CC(C)Oc1ccc(CNC(=O)c2cccc(NC(=O)c3nsc4ccccc34)c2)cc1 | inactive: -29.8% | –
COc1ccc(C2C=C(c3ccccc3)Nc3nc(NC(=O)/C=C/c4ccccc4OC)nn32)cc1 (stereo unspecified) | inactive: -17% | –
Cc1cccc(OCC(=O)N(Cc2ccc(N(C)C)cc2)Cc2ccco2)c1C | inactive: -4.5% | –
Cc1ccnc2nc(NC(=O)c3ccccc3Cl)nn12 | inactive: 18.9% | –
COC(=O)c1scc(-c2ccccc2)c1S(=O)(=O)Nc1ccc(C)c(Cl)c1 | inactive: 3.91% | –
CCOc1ccc(NC(=O)c2c(NCc3cccs3)sc3c2CCCCC3)cc1 | inactive: -1.59% | –
CC12CN3CC(c4ccccc4)(CN(C1)C3c1ccc(Cl)cc1)C2=O (stereo unspecified) | inactive: 15.6% | –
CC(=O)c1cc(-c2ccccc2)n(CCC(=O)NC2CCCCC2)c1C | inactive: 2.92% | –

Structure (SMILES) | activity change, negative = cytotoxicity | Potency
Cc1cccc(N(CC(=O)N(C)Cc2ccccc2)S(=O)(=O)c2ccccc2)c1C | inactive: 17.5% | –
CCC(=O)N1CCc2cc(Br)cc(S(=O)(=O)N3CCCC(C(=O)Nc4ccc(OC)cc4OC)C3)c21 (stereo unspecified) | inactive: -2.88% | –
CCc1ccc(S(=O)(=O)c2nnn3c2nc(NC(C)C)c2cc(Cl)ccc23)cc1 | inactive: 1.88% | –
CCOc1ccc(NC(=O)CCC(=O)N2CCSc3ccccc32)cc1 | inactive: -7.83% | –
CCc1ccccc1NC(=O)Cn1c(=O)n(CCc2ccccc2)c(=O)c2ccccc21 | inactive: 19.2% | –
CCCC(=O)n1nc(-c2cccnc2)nc1NCc1ccccc1 | inactive: -1.21% | –
COc1ccc(N2CCN(C(=O)Nc3ccccc3Cl)CC2)cc1 | inactive: -8.19% | –
COc1ccc(Cn2c(CCC(=O)Nc3ccc(OC)c(Cl)c3)nc3cccnc32)cc1 | inactive: 3.1% | –
O=C(NCCc1ccc(Cl)cc1)c1ccc(CSCc2ccc(Cl)cc2)o1 | inactive: -6.06% | –
Clc1ccccc1-c1nnc(SCc2nc(-c3ccccc3)no2)n1-c1ccccc1 | inactive: -20.8% | –
COc1cccc(NC(=O)CSC2=Nc3ccccc3C3=NC(CC(=O)NCc4ccccc4OC)C(=O)N23)c1 (stereo unspecified) | inactive: -10.2% | –
CCCCNC(=O)CCSc1nc(-c2ccc3c(c2)OCO3)cc(C(F)(F)F)n1 | inactive: -1.33% | –
O=c1oc2ccc(Cl)cc2cc1-c1cn2c(n1)sc1ccccc12 | inactive: -0.606% | –
CCOC(=O)N1CCN(S(=O)(=O)N2CCCC(C(=O)NCc3ccc(OC)cc3OC)C2)CC1 (stereo unspecified) | inactive: 9.69% | –
COc1ccc(NS(=O)(=O)c2c(C)nc3scc(C)n3c2=O)cc1 | inactive: -22.2% | –
O=C(Nc1ccc2nc(SCC(=O)N3CCOCC3)sc2c1)c1cccc(F)c1 | inactive: 15.3% | –
O=C(Nc1cc(-c2nc3cc(Cl)ccc3o2)ccc1Cl)c1cc([N+](=O)[O-])ccc1N1CCOCC1 | inactive: 3.45% | –
Cc1cc2n(n1)CCC(=O)N2Cc1ccc(C(=O)Nc2ccc(F)cc2F)cc1 | inactive: -12.4% | –
COc1ccc(-c2nc3scc(CCNC(=O)c4cccc(Br)c4)n3n2)cc1 | inactive: 22.4% | –
Cc1cc(-c2ccc(S(=O)(=O)N3CCN(c4ccc(Cl)cc4)CC3)s2)on1 | inactive: 1.76% | –
CCOC(=O)c1ccc(N2C(=O)c3[nH]nc(-c4ccc(OCC)cc4)c3C2c2cccs2)cc1 (stereo unspecified) | inactive: 4.31% | –
CCOC(=O)c1ccc(NC(=O)CC2Nc3ccccc3NC2=O)cc1 (stereo unspecified) | inactive: -2.59% | –
CCOc1cccc2c1Oc1nc(-c3ccccc3)nc(SCC(=O)Nc3ccc(F)cc3)c1C2 | inactive: 8.89% | –
O=C(c1ccccc1Cl)N1CCCCC1CCN1CCOCC1 (stereo unspecified) | inactive: 25.1% | –

Structure (SMILES) | activity change, negative = cytotoxicity | Potency
Cc1ccc(CNCc2cccn2-c2nnc(N3CCCC3)s2)cc1 | inactive: -5.81% | –
COc1ccc(CNC(=O)Cn2c(=O)ccc3cc(S(=O)(=O)N4CCCC4)ccc32)cc1 | inactive: 3.57% | –
Cc1ccc(Cn2c(CNC(=O)Cc3cccc(C)c3)nc3cccnc32)cc1 | inactive: 0.214% | –
CC(=O)c1ccc(N2CCN(S(=O)(=O)c3cc(-c4noc(C)n4)ccc3C)CC2)cc1 | inactive: 16.6% | –
Cc1nn(S(=O)(=O)c2ccc(C(C)(C)C)cc2)c(C)c1S(=O)(=O)N1CCC(C)CC1 | inactive: 11% | –
CCOC(=O)c1c(NC(=O)COc2ccc(C)cc2C(C)(C)C)sc2c1CCC(C)C2 (stereo unspecified) | inactive: 9.08% | –
Cc1c(C(=O)N2CCC(C)CC2)c(S(=O)(=O)Nc2cccc(C(F)(F)F)c2)c(C)n1C | inactive: 3.33% | –
CC(C)N(Cc1ccccc1)C(=O)C1CCCN(c2ncnc3onc(-c4ccc(F)cc4)c23)C1 (stereo unspecified) | inactive: -5.65% | –
COCC(=O)Nc1cccc(-c2nc3cccnc3s2)c1 | inactive: 7.74% | –
COc1ccccc1CNC(=O)c1cnc(SC)nc1C | inactive: 5.33% | –
COc1ccc2[nH]cc(CCNC(=O)c3cnn(-c4ccc(C)cc4)c3C3CCN(C(=O)OC(C)(C)C)CC3)c2c1 | inactive: 3.33% | –
COCCN1C(=O)c2oc3ccc(C)cc3c(=O)c2C12C(=O)N(C)c1ccccc12 (stereo unspecified) | inactive: 3.9% | –
CC(=O)Nc1ccc(NC(=O)C2(c3cccs3)CCOCC2)cc1 | inactive: 5.1% | –
Cc1ccc(NC(=O)CSc2nc(=O)n(Cc3ccco3)c3c2CCC3)cc1F | inactive: -13.1% | –
O=C(Nc1sc2c(c1C(=O)Nc1cccc(Cl)c1)CCCC2)c1cccs1 | inactive: -9.33% | –
Cn1c(=O)c(=O)n(C)c2cc(N3CCCC3)c(NC(=O)c3ccccc3F)cc21 | inactive: 10.7% | –
CCn1nc(-c2ccccc2)c(-c2ccccc2)c(C(=O)Nc2nc(C)c(C(C)=O)s2)c1=O | inactive: 3.03% | –
CCC(=O)N1CCc2cc(CNC(=O)c3ccc(OC)cc3)ccc21 | inactive: -2.85% | –
CCCCn1cc(S(=O)(=O)c2ccc(C)c(C)c2)c(=O)c2cc(F)c(N(CC)CC)cc21 | inactive: -23.6% | –
COc1ccc(-c2nc(CN3CCC(C(=O)NCCc4ccccc4)CC3)c(C)o2)cc1OC | inactive: 3.57% | –
CCn1nnc2cc(C(=O)Nc3ccc(C)c(Cl)c3)ccc21 | inactive: -7.49% | –
Cc1ccc(NC(=O)c2cc(S(=O)(=O)NC3CCCCC3)ccc2F)cc1Cl | inactive: -31.5% | –
Cc1ccc2c(c1)-c1onc(C(=O)N3CCN(c4cc(Cl)ccc4C)CC3)c1CO2 | inactive: -14.6% | –
COC(=O)c1ccccc1NC(=O)c1cc(CN2CCCC2)on1 | inactive: -4.64% | –

Structure (SMILES) | activity change, negative = cytotoxicity | Potency
CC1Cc2ccccc2N1S(=O)(=O)c1nnc(NC(=O)c2cccc(F)c2)s1 (stereo unspecified) | inactive: -3.65% | –
CCC(=O)N1CCc2cc(CNC(=O)Cc3ccc(F)cc3)ccc21 | inactive: -1.96% | –
Cc1cccc(Cn2c(COc3ccc(Cl)cc3)nc3ccccc32)c1 | inactive: -29.7% | –
Cc1ccc(CCNC(=O)c2cc3n(n2)CCCN(Cc2ccc(C)cc2)C3=O)cc1 | inactive: 0.668% | –
CCc1nnc(SCC(=O)Nc2cc(OC)ccc2OC)nc1CC | inactive: -3.42% | –
CCN(Cc1ccccc1)C(=O)c1cc2c(=O)[nH]c3ccc(C)cc3c2s1 | inactive: -0.51% | –
Cc1ccc(NC(=O)N2CCN(c3ccc(Cl)c(Cl)c3)CC2)cc1 | inactive: -29.7% | –
Cc1nnc(NC(=O)CSc2nccn2Cc2ccc(Cl)cc2)s1 | inactive: -0.357% | –
O=C(CSc1cn(CCNC(=O)c2c(F)cccc2F)c2ccccc12)Nc1ccc(F)cc1 | inactive: 11.7% | –
COc1ccc2c(c1)c1c(c(=O)n(-c3ccccc3C)c(=O)n1C)n2C | inactive: 2.51% | –
CCN(CC)S(=O)(=O)c1cccc(C(=O)Nc2sc3c(c2C#N)CCC(C)C3)c1 (stereo unspecified) | inactive: -14% | –
Cc1cc(C)c(S(=O)(=O)N2CCC(N3CCN(Cc4ccccc4)C(=O)C3=O)CC2)c(C)c1 | inactive: -8.31% | –
COc1ccc(-n2ncc(C(=O)N3CCN(c4cc(C)ccc4C)CC3)c2C2CCN(C(=O)OC(C)(C)C)CC2)cc1 | inactive: 11.2% | –
CCN(CC)CCNC(=O)c1cn(CCOC)c(=O)c2c1c1ccccc1n2C | inactive: 0.305% | –
COc1ccc(CNCc2c(C(=O)O)c(C)n(Cc3ccccc3C)c2C)c(OC)c1 | inactive: 3.32% | –
COc1ccc(Nc2cc(C)c3cc(NC(=O)Cc4ccc(Cl)cc4)ccc3n2)cc1 | inactive: 18.6% | –
O=C(Nc1ccc(F)c(Cl)c1)N1CCC2(CC1)Oc1ccccc1C(=O)N2Cc1ccccc1F | inactive: 18.7% | –
Cc1nc2nc(NC(=O)CC(C)C)[nH]n2c(=O)c1Cc1ccccc1 | inactive: -3.45% | –
CCc1ccccc1NC(=O)Cc1ccc(NC(=O)N2CCCCc3ccccc32)cc1 | inactive: 14.9% | –
CCS(=O)(=O)c1ncc(Cl)c(C(=O)Nc2c(C(=O)Nc3cccc(C)c3)oc3ccccc23)n1 | – | active: 2.24 µM
Cc1ccc(-c2c(C(=O)N3CCN(c4cc(Cl)ccc4C)CC3)oc(=O)c3ccccc23)cc1 | inactive: 21.9% | –
COc1ccc(C)cc1NC(=O)c1cc2c(=O)n(Cc3cccnc3)ccc2nc1C | inactive: -9.3% | –
Cc1cccc(CNC(=O)c2ccc3oc(=O)n(Cc4ccccc4)c3c2)c1 | inactive: -21.3% | –
O=S(=O)(c1ccc(Br)cc1)c1nnn2c1nc(NCc1ccc3c(c1)OCO3)c1sccc12 | inactive: 17.6% | –
